In the supplement of paper PMC10723795:
Counter-ions that a name gives are not always drawn. The list shows a part of the results.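 How the source made its calls: active = more than 2 SD below the DMSO mean: under 0.85 at 10 µM or 0.885 at 1 µM; inactive = the rest.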 Single values are uncertain, as repeats are few or missing.

Tested on: RPE1
Assay: nucleolar normality score relative to DMSO (fraction of DMSO control); RPE1 is a non-cancer human cell line; higher = more normal nucleoli (less nucleolar stress)
Conditions: 24 h
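Further: fixed cells immunolabelled for nucleolin and UBF, 40 image fields per well in 384-well plates, per-cell score = nucleolin nucleolar/nucleoplasm intensity ratio divided by the matching UBF ratio.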

Compound | nucleolar normality score (1 µM) | nucleolar normality score (10 µM)
COc1ccc(C2CC(c3ccccc3)=NN2c2ccc(S(N)(=O)=O)cc2)cc1 (stereo unspecified) | inactive: 0.927 | inactive: 1
Cc1cc(Nc2cc(N3CCN(C)CC3)nc(/C=C/c3ccccc3)n2)n[nH]1 [ENMD-2076 L-(+)-Tartaric acid] | inactive: 0.907 | inactive: 0.939
Cc1cc(Nc2cc(N3CCN(C)CC3)nc(/C=C/c3ccccc3)n2)n[nH]1 | inactive: 1.04 | inactive: 1.08
COCCOc1ccc2c(c1)ncn2-c1ccc2cccc(N3CCC(N)CC3)c2n1 | inactive: 0.944 | inactive: 1.01
CCCC(=O)[O-].[Na+] [Sodium butyrate] | active: 0.23 | inactive: 1.07
Cc1nn(C)c2c1C(c1ccc(C(F)(F)F)cc1)C(C#N)=C(N)O2 (stereo unspecified) | inactive: 1.01 | inactive: 0.963
CCCCCCCCCCCC1=C(O)C(=O)C=C(O)C1=O [Embelin] | inactive: 1.03 | inactive: 0.91
COc1c2ccoc2cc2oc(=O)ccc12 [Bergapten] | inactive: 1.12 | inactive: 0.903
Cc1ccc([N+](=O)[O-])cc1S(=O)(=O)N(C)/N=C/c1cnc2ccc(Br)cn12 | inactive: 1 | active: 0.115
COc1cc(OC)c(/C=C/S(=O)(=O)Cc2ccc(OC)c(NCC(=O)O)c2)c(OC)c1 | inactive: 1.03 | inactive: 1.07
COc1ccc(-c2ccc3c(N4CCOCC4)nc(N4C[C@@H](C)O[C@@H](C)C4)nc3n2)cc1CO | inactive: 0.986 | inactive: 1
Nc1nc(OCc2ccccc2)c2nc[nH]c2n1 [O6-Benzylguanine] | inactive: 1.02 | inactive: 0.877
CC1=C(/C=C/C(C)=C/C=C/C(C)=C\C(=O)O)C(C)(C)CCC1 [Isotretinoin] | inactive: 0.896 | inactive: 0.991
CN(Cc1cnc2nc(N)nc(N)c2n1)c1ccc(C(=O)N[C@@H](CCC(=O)O)C(=O)O)cc1 [Methotrexate] | inactive: 1.02 | active: 0.729
O=C(Nc1nccs1)C(c1cc(F)ccc1O)N1Cc2ccccc2C1=O (stereo unspecified) | inactive: 0.958 | inactive: 0.974
CC/C(=C(/c1ccc(/C=C/C(=O)O)cc1)c1ccc2[nH]ncc2c1)c1ccc(F)cc1Cl [Brilanestrant (GDC-0810, ARN-810)] | inactive: 1.11 | inactive: 0.985
COc1cc(C(C)=O)ccc1O [Apocynin] | inactive: 1.1 | inactive: 1.1
CCCCCCCCCCCCCCCCOP(=O)([O-])OCC[N+](C)(C)C [Miltefosine] | inactive: 1.01 | inactive: 1.09
COC(=O)c1ccc([C@H]2c3[nH]c4ccccc4c3C[C@H](C(=O)OC)N2C(=O)CCl)cc1 | inactive: 0.989 | inactive: 0.995
Cc1ncc(Cl)cc1NCc1ccc(C(=O)N[C@@H](CC2CCCC2)C(=O)NC2CC2)s1 | inactive: 1.01 | inactive: 1.04
Oc1c(F)cc(-c2cnccc2-c2ccc(N3CCOCC3)cc2)cc1F | inactive: 1 | inactive: 1.03

Compound | nucleolar normality score (1 µM) | nucleolar normality score (10 µM)
CCCCCCCCCCCCc1ccc(S(=O)(=O)Nc2nncs2)cc1 | inactive: 1.07 | inactive: 1.07
CN(C)CC#Cc1ccc(OCCCc2sc(N3CCc4cccc(C(=O)Nc5nc6ccccc6s5)c4C3)nc2C(=O)O)c(F)c1 | inactive: 1.07 | inactive: 1.03
CNCCN(C)Cc1c[nH]nc1-c1ccc(O[C@H]2C[C@H](OCCC3CCOCC3)C2)cc1 | inactive: 1.03 | inactive: 1.05
COC1CCN(C(=O)c2cc(Cc3n[nH]c(=O)c4ccccc34)ccc2F)CC1 | inactive: 1 | inactive: 0.867
Nc1ccn([C@@H]2O[C@H](CO)[C@@H](O)[C@@H]2O)c(=O)n1 [Cytarabine] | inactive: 1.03 | inactive: 1.05
Cc1cc(C)c(S(=O)(=O)n2cc(C)cc2C)c(C)c1 | inactive: 1 | inactive: 1.06
C=CC(=O)Nc1ccc(CN2C(=O)N(c3cc(OC)cc(OC)c3)Cc3cnc(Nc4ccc(N5CCN(C)CC5)cc4)nc32)cc1 | inactive: 0.937 | inactive: 0.992
Nc1ccc(C(=O)Nc2cccc(-c3nc(N4CCOCC4)c4oc5ncccc5c4n3)c2)cn1 | inactive: 1.06 | inactive: 1.11
C[C@H](Nc1ncnc2[nH]cnc12)c1cc2ccc(F)cc2nc1-c1ccccn1 | inactive: 0.996 | inactive: 1.01
Cc1nc(-c2cccnc2)sc1C(=O)Nc1ccccc1-c1cn2c(CN3CCOCC3)csc2n1 | inactive: 1.03 | inactive: 1.09
COc1cc([C@@H]2c3cc4c(cc3[C@@H](O[C@@H]3O[C@@H]5CO[C@@H](c6cccs6)O[C@H]5[C@H](O)[C@H]3O)[C@H]3COC(=O)[C@H]23)OCO4)cc(OC)c1O [Teniposide] | active: 0.839 | inactive: 0.948
CC(C)c1ccc2c(c1)c(SC(C)(C)C)c(CC(C)(C)C(=O)O)n2Cc1ccc(Cl)cc1 | inactive: 0.995 | inactive: 0.997
Cc1nc(Nc2ncc(C(=O)Nc3c(C)cccc3Cl)s2)cc(N2CCN(CCO)CC2)n1 [Dasatinib hydrochloride] | active: 0.821 | active: 0.722
Cc1nc(Nc2ncc(C(=O)Nc3c(C)cccc3Cl)s2)cc(N2CCN(CCO)CC2)n1 [Dasatinib] | active: 0.763 | active: 0.637
COc1cc(N2CCC(N3CCN(C)CC3)CC2)ccc1Nc1ncnc(Nc2ccccc2S(=O)(=O)C(C)C)n1 | inactive: 0.928 | active: 0.841
CCN1CCN(Cc2ccc(-c3cc4c(N[C@H](C)c5ccccc5)ncnc4[nH]3)cc2)CC1 | inactive: 0.934 | inactive: 1.11
Cc1nc(-c2ccc(OCC(C)C)c(C#N)c2)sc1C(=O)O [Febuxostat] | inactive: 1.06 | inactive: 1.13
C=C1/C(=C\C=C2/CCC[C@]3(C)[C@@H]([C@H](C)/C=C/[C@H](C)C(C)C)CC[C@@H]23)C[C@@H](O)C[C@@H]1O [Doxercalciferol] | inactive: 1.02 | inactive: 1.06
Cc1ccc2c(=O)c3cccc(CC(=O)O)c3oc2c1C [DMXAA (Vadimezan)] | inactive: 1.01 | inactive: 1.07
CCOC(=O)c1[nH]c2cc(Cl)ccc2c1C(C(=O)NC(C)(C)C)N(C=O)Cc1ccc(Cl)cc1 (stereo unspecified) | inactive: 0.989 | inactive: 1.08
O=C1NCCCc2c1oc1ccc(O)cc21 | inactive: 1.03 | inactive: 1.13

Compound | nucleolar normality score (1 µM) | nucleolar normality score (10 µM)
H-RRRRRRRRRRPILTRITLE-OH | inactive: 0.981 | inactive: 1.03
C=CC(=O)Nc1cccc(Nc2nc(Nc3ccc(OCCOC)cc3)ncc2F)c1 [Spebrutinib (CC-292, AVL-292)] | inactive: 0.925 | inactive: 1
N#Cc1c(NC(=O)c2cccc3ccccc23)sc2c1CCCC2 [JNK Inhibitor IX] | inactive: 1.05 | inactive: 0.898
CCC(=O)Nc1cccc(Oc2nc(Nc3ccc(N4CCN(C)CC4)cc3OC)ncc2Cl)c1 | inactive: 0.986 | inactive: 0.952
CCN(CC)CCCC(C)Nc1nc(C)cc(Nc2ccc3nc(C)cc(N)c3c2)n1 (stereo unspecified) | inactive: 1.02 | inactive: 1.05
C#CCC(Cc1cnc2nc(N)nc(N)c2n1)c1ccc(C(=O)N[C@@H](CCC(=O)O)C(=O)O)cc1 (stereo partly specified) [Pralatrexate] | active: 0.702 | active: 0.794
O=C(NOCC(O)CO)c1cc(Br)c(F)c(F)c1Nc1ccc(I)cc1F (stereo unspecified) | inactive: 1.06 | inactive: 1.09
CC(C)c1c(-c2ccccc2)nc2c(C#N)c[nH]n2c1=O | inactive: 0.903 | inactive: 1.07
C=C(C)[C@@H]1CC=C(CO)CC1 [Perillyl alcohol] | inactive: 1 | inactive: 1.02
CN(C)C/C=C/C(=O)Nc1cc2c(Nc3ccc(F)c(Cl)c3)ncnc2cc1O[C@H]1CCOC1 [Afatinib (BIBW2992) Dimaleate] | inactive: 1.02 | inactive: 1.09
C=C1CC[C@H]2C(=C)CC[C@H]3C(=C)C(=O)O[C@@H]3[C@@H]12 [Dehydrocostus Lactone] | inactive: 1.02 | inactive: 0.896
CC(CN(C)C)Oc1nc(Nc2cc3cccc(Cl)c3cn2)cnc1C#N (stereo unspecified) | inactive: 1.01 | inactive: 1.06
CNC(=O)c1ccc(C)c(-n2c(C)cc(OCc3ccc(F)cc3F)c(Br)c2=O)c1 | inactive: 1.02 | inactive: 1.06
Cc1cc(OCc2nnc(SC3CCCC3)n2-c2cccnc2)ccc1-c1ccc(S(C)(=O)=O)cc1 | inactive: 0.962 | inactive: 1.02
NC(=O)c1cccc(N)c1 [INO-1001 (3-Aminobenzamide)] | inactive: 1.03 | inactive: 1.03
Cc1ccc(-n2nc(C(C)(C)C)cc2NC(=O)Nc2ccc(OCCN3CCOCC3)c3ccccc23)cc1 [Doramapimod (BIRB 796)] | inactive: 1.11 | inactive: 1.07
C=CC(=O)Nc1cccc(Oc2nc(Nc3ccc(N4CCN(C)CC4)cc3)nc3ccsc23)c1 | inactive: 0.975 | inactive: 0.992
Nc1ncnc2n[nH]c(Nc3ccc(F)cc3)c12 | inactive: 0.961 | inactive: 1.04
C[C@H](NC(=O)c1c(N)nn2cccnc12)c1cc2cccc(C#Cc3cnn(C)c3)c2c(=O)n1-c1ccccc1 | inactive: 0.983 | inactive: 0.978
C[C@@H]1CCCCCCCCCCCCC(=O)C1 [Muscone] | inactive: 0.96 | inactive: 1.02
Cc1ccc2nc(NC(=O)CSc3nc4c(c(=O)n3-c3ccccc3)SCC4)sc2c1 | inactive: 1.03 | inactive: 1.01
